The record followed here is the supplement of paper PMC10126150.

The subject of this data set is ATP. Kind of data set: switch fluorescence ratio, 500 uM ATP over buffer (Cy3 cluster intensity, sum of 5 cycles each) (fold (ratio)); higher = stronger signal-on switching upon ATP binding; sequences stand for … in TCGTCGGCAGCGTCAGATGTGTATAAGAGACAGTTTTTTTTTTTTTTTTTTTTTTTTT…TC. The following applies: aptamer strand: ATP DNA aptamer (quencher-CACCTGGGGGAGTATTGCGGAGGAAGG + anchor), 100 nM annealed; ATP concentration: 500 uM; one replicate. In a few lines: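 For every switch-domain sequence, the fluorescence ratio is the mean of per-cluster values, each being summed target-cycle Cy3 intensity over summed buffer-cycle Cy3 intensity. Clusters outside 100-1000 RFU were excluded. On a modified Illumina MiSeq flow-cell, the Cy3-labelled switching-strand clusters were annealed to 100 nM quencher-labelled ATP aptamer, imaged in selection buffer and then after 15 min with 500 uM ATP at 22 °C. Five such cycles were run, with NaOH stripping and re-annealing between them.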

Sequences with one replicate were seen in a single cluster, so their values are uncertain.
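Note: ATP exposure 15 min at 22 °C before imaging.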

Turning to ATTCCAGCGT, the switch fluorescence ratio was found to be 1.01.
Regarding ATGATATATT, the switch fluorescence ratio worked out at 1.01.
Then TCCGCCAGCG, with 1.88.
Under TGAAGGGCAT stands 0.94.
Then TCGCCAGAAT, with 0.998.
In the case of TGCTGAATAG, the switch fluorescence ratio worked out at 1.03.
Then GAGGATCACC, with 0.979; and CTCCAATTTC, with 1.9; and TGACTTAGCG, with 1.05.
For TAAAGTGAGG, the switch fluorescence ratio came to 0.989.
Then AGCGAGTCG, with 0.999.
Then GACGGGAGGC, with 1.09; and AGCTCTCGGA, with 0.987; and TACTCTGTTG, with 1.01.
Turning to CAGGCGGCGT, the switch fluorescence ratio came out at 0.98.
Then GGCGTATGCG, with 1.04; and GCAATTGCGA, with 1.04.
Then CGCTGGCGGT, with 0.966; and TGGTTCTTTG, with 0.993.
As to CAAGCAAT, the switch fluorescence ratio was 2.42.
Then TGGTGGTATT, with 0.989; and CAGTTGGCT, with 0.997.
Then TTGCTCCGAC, with 2.26.
Under GGGGAAGGCG stands 1.01; under ACTCAGGTCA, 1.08; under GCACCACATG, 1.02.
In the case of TTGTCAATAG, the switch fluorescence ratio came out at 1.53.
Under TGTTCCTGAT stands 0.973; under TCCAGTGCAT, 1.02.
Under GATTCCGCGT stands 1.82; under ACGGAGGTTA, 1.02.
Then AGCACTGGGG, with 0.997; and ACACACATCG, with 1.21; and ATGTTCTTGG, with 1.01.
On to GGATGAGAG, for which the switch fluorescence ratio is 0.979.
With GTCATTTTCA, the switch fluorescence ratio was determined as 0.976.
Then CATTTGTGC, with 0.983.
Under CTACTCATAT stands 1.06.
Under CCTCTTCCCT stands 1.13; under GCCCTTTGTC, 0.978; under CAGAATCCGC, 1.65.
As to AAAAGGCCCA, the switch fluorescence ratio came to 0.995.
Under TTAACCAG stands 1.01; under CGGAGTGGAT, 1.11; under ATTATCTCCG, 1.28.
Under GACGACCCCC stands 2.09; under AATATGCACT, 1.09.
As to AAGGGTTGCC, the switch fluorescence ratio was determined as 0.984.
Then GTAGTTAGCT, with 0.993; and AAATATTAGG, with 1.04; and CTTCTTCAGA, with 1.04.
Under GATACGAGCT stands 1.07; under GCACTCATTT, 1.06.
Then GTGGATTTGT, with 0.939; and TGAACCGAG, with 1.25; and AATATAACAT, with 1.01.
As for GCAACACCTT, the switch fluorescence ratio worked out at 1.15.
Under CAATTCACCT stands 1.2; under CCATTAACCT, 1.77.
Take AACGAATGGG: the switch fluorescence ratio came to 1.01.
Under AAGATTTTTA stands 0.983; under CCATGTATA, 0.977.
Under ACTTGAGCGA stands 1.02; under ATTGATTTA, 1.01; under AGATGCCCGG, 0.995.
Under TTGGGTAGA stands 1.02.
GCTCTCAATT: the switch fluorescence ratio worked out at 1.12.
Under ATGGTCGCCT stands 0.983; under GTTGAAGAGC, 0.957.
In the case of TAAAAGGGT, the switch fluorescence ratio came out at 0.991.
Then TCGGAAGAGT, with 1.04.
For GTAATCGGAT, the switch fluorescence ratio worked out at 0.983.
Then GCCACCGATT, with 1.05; and TACAATGCTC, with 1.82; and CATTTTCTTA, with 0.992.
Under GAAATGATAG stands 1.01; under GGAGCACG, 1.11.
GTAGGCCAGC: the switch fluorescence ratio came to 1.01.
Consider ACGCATTAGT, for which the switch fluorescence ratio came to 1.36.
Then TGCAAGCTCT, with 1.08; and CAAGACGCCC, with 1.41; and GATTCACTTG, with 1.01.
Regarding GATATACGGG, the switch fluorescence ratio was 0.985.
Regarding ACCCAAGGTT, the switch fluorescence ratio worked out at 1.1.
Under CAACAAAACT stands 1.01; under CGATCGGTGT, 1.02; under CGATGTGTCG, 0.935.
Under GGAGAACGAA stands 0.951; under GGCACTTAGT, 1.02.
Under AAAAACTGAT stands 1.19.
For the sequence CGGAGGCCGA, the switch fluorescence ratio was determined as 0.922.
In the case of TTTCGGGTCG, the switch fluorescence ratio stood at 0.991.
Turning to GCCGTACCGG, the switch fluorescence ratio came out at 1.01.
Consider ACATATTCTA, for which the switch fluorescence ratio came out at 1.04.
Under ATACTCTGGT stands 1.01; under TGTCTTTTAG, 1.01.
With CTCGTCGGCG, the switch fluorescence ratio is 0.988.
Under CGGATCCGCC stands 1.07; under ATGTCGGGTC, 1.01; under TGATGGTAG, 0.991.
Under GCCAATATTG stands 1.04.
For the sequence ATCTGGGGGT, the switch fluorescence ratio amounted to 1.02.
Then TAGTAGCAG, with 1.29; and GCCCTAGAAT, with 0.995.
Under TAAACGCGCC stands 1.08.
Then GGCGAAAGGC, with 1.1; and GTTAAATGC, with 1.04; and AATGACAACT, with 1.
As to GGTAGTTAAT, the switch fluorescence ratio stood at 1.02.
Turning to ACTCGGAGTT, the switch fluorescence ratio amounted to 0.991.
In the case of CTCGGTATCG, the switch fluorescence ratio was 0.992.
Then TGTCGTGAAG, with 1.06.
Consider GGGAGGGTCA, for which the switch fluorescence ratio amounted to 1.07.
Then AGAATCGGTT, with 1; and GAAAGAAAAG, with 0.96; and GCCAGAGACG, with 1.
Take CGTACGAAAG: the switch fluorescence ratio worked out at 1.04.
Under GATCGCGTCG stands 1; under AGATGGTCGC, 1.03; under ACACCGCGAT, 3.81.
